# Measurements published in PubChem BioAssay AID488969 (Vanderbilt High Throughput Screening Facility, 2010).
# Whole data set: some 110,000 compounds, median “z-score” near -0.1, cut for the highest 2% near 2. The list shows a part of the results. Calls of active or inactive are those of the source.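 The calls were made as follows: active = z-score in the third read window above 3 or below -3; inactive = the rest.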
# Molecular target: Metabotropic glutamate receptor 8 (Rattus norvegicus) (UniProt P70579)
# Sequence of UniProt P70579 (P70579 whole entry, looked up): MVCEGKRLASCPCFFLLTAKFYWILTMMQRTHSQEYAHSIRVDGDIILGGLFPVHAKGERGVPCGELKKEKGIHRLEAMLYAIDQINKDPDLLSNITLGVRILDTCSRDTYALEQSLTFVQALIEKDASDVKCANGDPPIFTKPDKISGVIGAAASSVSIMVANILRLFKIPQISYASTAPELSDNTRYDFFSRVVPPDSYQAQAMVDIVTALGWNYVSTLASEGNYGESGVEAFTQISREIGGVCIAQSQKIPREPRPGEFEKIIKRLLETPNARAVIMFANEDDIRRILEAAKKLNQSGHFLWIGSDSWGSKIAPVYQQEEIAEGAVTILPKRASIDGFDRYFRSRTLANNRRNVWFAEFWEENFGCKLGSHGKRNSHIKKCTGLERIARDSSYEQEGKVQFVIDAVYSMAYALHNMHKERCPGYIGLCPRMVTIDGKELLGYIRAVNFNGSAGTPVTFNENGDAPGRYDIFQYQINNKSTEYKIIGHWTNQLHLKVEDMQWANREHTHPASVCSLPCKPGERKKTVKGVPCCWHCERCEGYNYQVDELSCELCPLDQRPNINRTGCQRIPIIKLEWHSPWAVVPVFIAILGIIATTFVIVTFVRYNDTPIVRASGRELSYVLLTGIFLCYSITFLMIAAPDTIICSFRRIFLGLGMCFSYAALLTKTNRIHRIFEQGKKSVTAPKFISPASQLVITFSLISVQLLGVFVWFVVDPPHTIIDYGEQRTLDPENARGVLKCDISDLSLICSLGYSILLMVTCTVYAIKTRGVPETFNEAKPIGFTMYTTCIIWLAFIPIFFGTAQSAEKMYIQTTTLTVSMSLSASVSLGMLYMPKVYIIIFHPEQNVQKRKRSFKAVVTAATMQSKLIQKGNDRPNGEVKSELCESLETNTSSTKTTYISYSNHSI
# Assay: rat mGluR8 modulators via GIRK flux, primary screen, cell-based, thallium flux, HTS (AID 488969)
# Settings: HEK293 rat mGluR8, GIRK (G protein-gated inwardly rectifying potassium channel) thallium flux, FluoZin2; at 10 µM; stronger effect = higher value; submaximal glutamate (EC20) added with thallium
row,SMILES,z-score
1,Cc1cccc(-c2cc(C(=O)Nc3ccc4c(c3)OCCO4)c3ccccc3n2)c1,-0.3
2,COc1ccc(S(=O)(=O)Nc2ccc(S(=O)(=O)N(C)C)cc2)cc1[N+](=O)[O-],-0.113
3,COc1cccc2c1OC1(C)CC2NC(=O)N1c1cccc(C(=O)N2CCN(c3ccccn3)CC2)c1 (stereo not given),0.0134
4,Cn1c(=NC(=O)CCl)sc2ccccc21,-0.0145
5,CCN(CC)c1ccc(C(=S)N2CCN(c3ccccc3)CC2)cc1,0.0899
6,COCCOC(=O)c1[nH]c2c(c1C)C(=O)CC(c1ccc(F)cc1)C2 (stereo not given),-0.126
7,Cc1ccc(NC(=O)c2ccc(CSc3ncnc4nc[nH]c34)cc2)c(C)c1,0.0227
8,CCNc1nc(Oc2ccc(=O)n(C)n2)nc(N2CCOCC2)n1,-0.0751
9,CCc1c(C)sc(NC(=O)C2CC2)c1C(=O)OC(C)C,-0.193
10,CC(C)NC(=S)NC(=O)/C=C/c1cccc2ccccc12,0.214
11,Cc1ccc(/C=N/NC(=O)CCCOc2ccc(Cl)cc2Cl)cc1,-0.111
12,COc1cc(/C=C(\C#N)C(=O)Nc2cccnc2)ccc1OC(C)C,2.99
13,Cc1nc(NCCO)c(C#N)c2c1COC(C)(C)C2,0.352
14,S=C(NCC1CCCO1)Nc1ccccc1Cl (stereo not given),-0.222
15,Cn1c(=O)c2c(ncn2CC(=O)N/N=C/C(Br)=C/c2ccccc2)n(C)c1=O,0.116
16,CCn1c(N)nc2ccccc21,0.0417
17,Cc1noc(NS(=O)(=O)c2ccc(N/C=C\C(=O)c3ccc4c(c3)OCO4)cc2)c1C,0.0931
18,COc1ccccc1NC(=O)c1ccc(NC(=O)CSc2n[nH]c(N)n2)cc1,-0.238
19,Cc1ccc(C)c(-c2cc(C(=O)NNC(=S)NCC(C)C)c3ccccc3n2)c1,-0.49
20,CC(=O)N1CC=C2C(C#N)=C(N)C(C#N)(C#N)[C@H](c3ccoc3)[C@H]2C1,-0.136
21,CCOC(=O)c1sc(Nc2nc3cc4c(cc3s2)OCO4)cc1C,-0.155
22,CC(=O)c1ccc(N2CCN(C(=O)c3ccco3)CC2)c(F)c1,-0.0315
23,COc1ccc(C(=O)NNC2=CC(=O)CC(C)(C)C2)cc1,-0.335
24,CC(C)Cn1c(N)c(C(=O)CSc2nnnn2C)c(=O)n(C)c1=O,-0.302

row,SMILES,z-score
1,Cc1c(Cl)cccc1Nc1nc(N)nc(CN2CCCCCC2)n1,-0.363
2,Cc1ccc(-c2csc(NC(=O)CSc3nc(C)cc(=O)[nH]3)n2)cc1,active: -3.08
3,CN1CCN(/C(=N\S(=O)(=O)c2ccc(F)cc2)c2ccccc2)CC1,-0.0184
4,O=C(CSc1nc2ccccc2c(=O)n1CCCO)NCc1ccccc1,0.236
5,COc1ccc(S(=O)(=O)N2CCCCC2)cc1NC(=O)c1ccc2c(c1)OCO2,-0.261
6,C=C(C)Cn1c(N2CCCC2)nc2c1c(=O)[nH]c(=O)n2C,-0.221
7,O=C(Cn1cc([N+](=O)[O-])cn1)Nc1ccn(Cc2c(F)c(F)cc(F)c2F)n1,-0.06
8,Cc1ccc(C2CC(=O)NC(SCC(=O)OCc3ccccc3)=C2C#N)o1 (stereo not given),-0.199
9,O=C(CC1CCCCC1)NCC1CCCO1 (stereo not given),-0.35
10,O=C(Nc1ccccc1)c1sc(Cl)nc1-c1ccccc1,-0.405
11,COc1ccc(NC(=O)CCS(=O)(=O)c2ccccc2)c(OC)c1,0.256
12,C=CCN1C(=O)/C(=C\c2ccco2)C(C(=O)OC)=C1C,-0.348
13,CCSc1nnc(CCNC(=O)OC(C)(C)C)o1,-0.345
14,CSc1nn(-c2ccc(C(=O)OCC(=O)NC(=O)NC(C)C)cc2)c(=S)s1,-0.201
15,O=C(O)CCN(CCC(=O)O)S(=O)(=O)c1ccccc1,-0.0389
16,O=C(/C=C/c1ccc(OCCCF)cc1)NCc1ccc(Cl)cc1,-0.204
17,CC(NS(=O)(=O)c1ccc(Cl)cc1)C(c1cccs1)N1CCN(C)CC1 (stereo not given),0.838
18,COc1cccc(NC(=O)COC(=O)c2ccco2)c1,-0.199
19,Clc1cnc(N/N=C/c2cccs2)c(Cl)c1,0.311
20,O=C(/C=C\c1cn(-c2ccccc2)nc1-c1cccs1)N1CCOCC1,0.512
21,Cc1ccc(-n2c(SCC(=O)NCCN3C(=O)CSC3=O)nnc2-c2ccccc2)cc1C,-0.27
22,CCOc1ccc(-n2ccnc2SCC(=O)N2CCCc3ccccc32)cc1,0.0483
23,Cc1nnc2ccc(N3CCC4(CC3)OCCO4)nn12,0.165
24,O=C(NCC(=O)N(Cc1ccccc1)C(C(=O)NC1CCCC1)c1ccco1)c1ccco1 (stereo not given),0.256

row,SMILES,z-score
1,O=c1[nH]c(=O)n(Cc2ccco2)c2c1C(C(F)(F)F)(C(F)(F)F)N=C(c1ccco1)N2,-0.261
2,Cc1cc(/C=C2\SC(=S)N(Cc3ccco3)C2=O)c(C)n1-c1cccnc1,-0.379
3,COc1cc(/C=N/NC(=O)c2ccc(COc3cc(C)ccc3C(C)C)cc2)cc(OC)c1O,0.637
4,O=C(Nc1cccc(-c2nc3ccccc3s2)c1)c1cc(-n2cnnc2)ccc1Cl,-0.00826
5,O=S(=O)(N/N=C/c1ccc2c(c1)OCCO2)c1ccc(Cl)cc1,-0.0904
6,CCN(Cc1ccccc1)C(=O)COC(=O)CNS(=O)(=O)c1ccc(C)cc1,-0.678
7,CCCCNC(=O)CCn1c(=S)[nH]c2cc3c(cc2c1=O)OCO3,-0.19
8,COc1ccc(C2C(=O)N(C3CCCCC3)CC(=O)N2Cc2ccco2)cc1 (stereo not given),-0.04
9,O=C(NCc1cccnc1)c1cccnc1Sc1ccc(Cl)cc1,-0.442
10,COc1ccc(NC2=CC(c3ccc(F)cc3)N(c3ccc(OC)cc3)C2=O)cc1 (stereo not given),-0.217
11,CC(=O)CCc1c(C)[nH]c2ccc(NC(C)=O)cc2c1=O,0.743
12,COc1ccc(/C=N/NC(=O)Nc2cccc3nsnc23)cc1,-0.371
13,O=C(NCc1ccco1)c1ccccc1Nc1ccc(F)cc1,0.261
14,CCNC(=O)c1c(NC(C)=O)sc2c1CCCC2,0.0536
15,COc1ccc(S(=O)(=O)N2CCCCCC2)cc1,-0.509
16,CCOCCn1c(SCc2cccc(C)c2)nc2c1c(=O)[nH]c(=O)n2C,-0.361
17,Cc1nc2ccccc2n1S(=O)(=O)N(C)C,-0.361
18,CN(C)/C=C(\C(=O)c1ccc(Cl)cc1)c1nnnn1-c1ccc(Cl)cc1,-0.0457
19,COc1cccc(Nc2nnc(SCN3C(=O)c4ccccc4C3=O)s2)c1,0.498
20,O=C(CC1NC(=O)NC1=O)Nc1ccccc1 (stereo not given),-0.0926
21,O=C1COc2ccc(C(=O)NCc3ccc4c(c3)OCO4)cc2N1,0.0779
22,Cc1cc(C)cc(Oc2ccc(-c3nnc(-c4ccccc4)o3)cc2[N+](=O)[O-])c1,0.197
